At least one read-out could not be matched to a standard name with certainty.
System: Carrageenan-stimulated inflammation on the rear left footpad of the rat
Test: Carrageenan-induced footpad edema in rats (Edema Rate E% and Inhibition Rate I%)
Assay type: in vivo, Wistar Albino Rats
Details: mean ± S.D. of 5 animals
Protocol: Wistar Albino Rats of 4 to 6 weeks old with weights of 100-150 g were used for the studies.
Weigh 30 mg of λ-carrageenan (Sigma Chemical) powder; add 3 mL of saline to make the 1% carrageenan solution.
Individually weigh 10 mg of each testing compound; add 10 mL of 1% CMC and shake to make the suspension.
In the present invention, Carrageenan was used to stimulate the inflammation on the rear left footpad of the rat. The inflammation on the left footpad of each rat was measured for rats with and without treatment. Treatment includes leflunomide analogs, dexamethasone, ibuprofen, and Malononitrilamide (MNA). Measurements of the inflamation at pre-determined time points were made.
The rats were weighed and divided into three groups: (1) Control Group, (2) Test Group, and (3) Comparison Group. For each compound, 5 rats were used and marked on the tails. Before injecting carrageenan, the volume of each left footpad was measured (V0). Each rat was injected in the back as follows:
(1) Control Group: 1% CMC for Control Group,
(2) Testing Group: testing compound (10 mg/kg each) in 1% CMC, and
(3) Comparison Group: dexamethasone (1.5 mg/kg in 1% CMC), ibuprofen 10 mg/kg in 1% CMC, MNA in 1% CMC.
One hour later, 0.05 mL of 1% carrageenan was injected onto the rear footpad of each rat to initiate the inflammation. Measure the volume of the rear left footpad (Vt) at 0.5, 1, 2, 3, 4, and 5 hours.
The Edema Rate (E%) and the Inhibition Rate (I%) are calculated as follows and the results of the in-vivo studies are summarized in Table 1 and Table 2. [formula]
V0=Volume (mL) of the rear left footpad before the injection of Carrageenan.
Vt=Volume (mL) of the rear left footpad at “t” time after the injection of Carrageenan
Ec=Edema Rate of the, Control Group
Et=Edema Rate of the Testing Group and Comparison Group

Compound	Edema rate (E%) after carrageenan administration (dose 10 mg/kg, 1 hr)	Edema rate (E%) after carrageenan administration (dose 10 mg/kg, 2 hr)	Edema rate (E%) after carrageenan administration (dose 10 mg/kg, 3 hr)	Edema rate (E%) after carrageenan administration (dose 10 mg/kg, 4 hr)	Edema rate (E%) after carrageenan administration (dose 10 mg/kg, 5 hr)	other results
C[C@@H]1C[C@H]2[C@@H]3CCC4=CC(=O)C=C[C@]4(C)[C@@]3(F)[C@@H](O)C[C@]2(C)[C@@]1(O)C(=O)CO [Dexamethasone, reference compound]	–	–	–	–	–	Edema rate (E%) after carrageenan administration (dose 1.5 mg/kg, injected in the back 1 h before carrageenan, 1 hr): 5.5 ± 0.7%; Edema rate (E%) after carrageenan administration (dose 1.5 mg/kg, 2 hr): 12 ± 1.8%; Edema rate (E%) after carrageenan administration (dose 1.5 mg/kg, 3 hr): 18.9 ± 1.5%; Edema rate (E%) after carrageenan administration (dose 1.5 mg/kg, 4 hr): 21.1 ± 0.4%; Edema rate (E%) after carrageenan administration (dose 1.5 mg/kg, 5 hr): 21.7 ± 0.4%
COc1cc(NC(=O)c2cc(C)on2)cc(OC)c1OC [Compound 5i, N-(3,4,5-Trimethoxyphenyl)-3-carboxamidyl-5-methylisoxazole]	19.4 ± 0.4%	22.3 ± 0.1%	33.7 ± 1.9%	36.1 ± 0.1%	37.1 ± 0.8%	–
Cc1cc(C(=O)Nc2ccccc2)no1 [Compound 5a, N-(Phenyl)-3-carboxamidyl-5-methylisoxazole]	7.8 ± 1.2%	8.5 ± 0.3%	11.7 ± 0.5%	13.6 ± 0.8%	35.8 ± 1.4%	–
Cc1cc(C(=O)Nc2ccc(C(F)(F)F)cc2)no1 [Compound 5f, N-(4-Trifluoromethylphenyl)3-carboxamidyl-5-methylisoxazole]	11.2 ± 0.9%	15.6 ± 0.4%	25.1 ± 0.2%	26.2 ± 0.1%	26.9 ± 0.5%	–
Cc1cc(C(=O)Nc2ccc(F)cc2)no1 [Compound 5k, N-(4-Fluorophenyl)-3-carboxamidyl-5-methylisoxazole]	11.2 ± 1.5%	27.9 ± 2.5%	33.9 ± 1.8%	35.6 ± 0.6%	36.3 ± 0.02%	–
Cc1cc(C(=O)Nc2ccccc2Cl)no1 [Compound 5b]	4.1 ± 0.4%	5.9 ± 0.4%	11.4 ± 0.5%	13.2 ± 1.2%	14.4 ± 0.8%	–
Cc1cc(C(=O)Nc2cccc(C(F)(F)F)c2)no1 [Compound 5e, N-(3-Trifluoromethyl)-3-carboxamidyl-5-methylisoxazole]	15.4 ± 0.3%	19.7 ± 1.7%	32.8 ± 2.7%	35.3 ± 0.9%	34.3 ± 3.2%	–
Cc1cc(C(=O)Nc2ccc(C(=O)O)cc2)no1 [Compound 5j, 4-[(5-Methylisoxazole-3-carbonyl)-amino]-benzoic acid]	10.3 ± 0.6%	18 ± 1%	24.2 ± 2.3%	26.3 ± 0.7%	27.5 ± 0.9%	–
COc1ccc(NC(=O)c2cc(C)on2)cc1 [Compound 5h, N-(4-Methoxyphenyl)-3carboxamidyl-5-methylisoxazole]	15.8 ± 0.9%	27.4 ± 0.4%	32.3 ± 0.3%	35.1 ± 0.8%	36.7 ± 0.4%	–
CC(C)Cc1ccc(C(C)C(=O)O)cc1 (stereo not drawn) [Ibuprofen, reference compound]	18.9 ± 1.1%	26.5 ± 1.4%	29.9 ± 0.1%	35 ± 0.9%	40 ± 0.41%	Edema rate (E%) after carrageenan administration (dose 20 mg/kg, 1 hr): 11.5 ± 1.8%; Edema rate (E%) after carrageenan administration (dose 20 mg/kg, 2 hr): 19.2 ± 0.4%; Edema rate (E%) after carrageenan administration (dose 20 mg/kg, 3 hr): 24.5 ± 1.1%; Edema rate (E%) after carrageenan administration (dose 20 mg/kg, 4 hr): 28.3 ± 1.5%; Edema rate (E%) after carrageenan administration (dose 20 mg/kg, 5 hr): 31.2 ± 1.6%; Edema rate (E%) after carrageenan administration (dose 30 mg/kg, 1 hr): 6.2 ± 0.2%; Edema rate (E%) after carrageenan administration (dose 30 mg/kg, 2 hr): 10.9 ± 0.6%; Edema rate (E%) after carrageenan administration (dose 30 mg/kg, 3 hr): 11.2 ± 0.2%; Edema rate (E%) after carrageenan administration (dose 30 mg/kg, 4 hr): 15.8 ± 0.7%; Edema rate (E%) after carrageenan administration (dose 30 mg/kg, 5 hr): 30.3 ± 4.2%
Cc1cc(C(=O)Nc2cccc(Cl)c2)no1 [Compound 5c, N-(3-Chlorophenyl)-3-carboxamidyl-5-methylisoxazole]	7.4 ± 0.7%	15.1 ± 0.8%	21.8 ± 1.3%	22.8 ± 1.8%	25.1 ± 1.3%	–
Cc1cc(C(=O)Nc2ccc(Cl)cc2)no1 [Compound 5d, N-(4-Chlorophenyl)-3carboxamidyl-5-methyisoxazole]	6.2 ± 0.7%	9.2 ± 0.3%	12.4 ± 1.4%	14 ± 1.1%	15.5 ± 0.6%	–
Cc1cc(C(=O)Nc2ccc(Cl)cc2Cl)no1 [Compound 5g, N-(2,4-Dichlorophenyl)-3carboxamidyl-5-methylisoxazole]	4.3 ± 0.1%	5.7 ± 0.3%	12.5 ± 3.1%	13.2 ± 3%	14.2 ± 3%	–
Cc1oncc1C(=O)Nc1ccc(C(F)(F)F)cc1 [Leflunomide, N-(4-trifluoromethylphenyl)-4-carboxamidyl-5-methylisoxazole]	14.9 ± 1.2%	22.2 ± 1.2%	24.9 ± 2.4%	32.9 ± 1.3%	34.8 ± 1.4%	Edema rate (E%) after carrageenan administration (dose 5 mg/kg, 1 hr): 20 ± 0.9%; Edema rate (E%) after carrageenan administration (dose 5 mg/kg, 2 hr): 27.2 ± 0.5%; Edema rate (E%) after carrageenan administration (dose 5 mg/kg, 3 hr): 32.6 ± 0.7%; Edema rate (E%) after carrageenan administration (dose 5 mg/kg, 4 hr): 38.7 ± 0.5%; Edema rate (E%) after carrageenan administration (dose 5 mg/kg, 5 hr): 39.8 ± 1.2%; Edema rate (E%) after carrageenan administration (dose 20 mg/kg, 1 hr): 11.3 ± 0.8%; Edema rate (E%) after carrageenan administration (dose 20 mg/kg, 2 hr): 16.9 ± 1.1%; Edema rate (E%) after carrageenan administration (dose 20 mg/kg, 3 hr): 21.9 ± 1.2%; Edema rate (E%) after carrageenan administration (dose 20 mg/kg, 4 hr): 25 ± 1.5%; Edema rate (E%) after carrageenan administration (dose 20 mg/kg, 5 hr): 27.5 ± 0.9%

— patent US6727272B1, “Leflunomide analogs for treating rheumatoid arthritis” (Unitech Pharmaceuticals, Inc., priority 2002, dated 2004)
